From the supplement of paper PMC5499739
Over roughly 16,000 sequences, “Z-score” has its median near -0.37; the highest 2% begin near 3.1. The list shows a part of the results.

system: RBM10 RRM1-ZnF-RRM2 (GST-tagged construct); experiment: RNAcompete 7-mer binding Z-score; higher = stronger binding preference
Outline: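 A designed pool of 241 399 RNAs, each up to 41 nt and transcribed from microarray-derived DNA templates, was used at 1.5 nmol with 20 pmol of GST-tagged RBM10 constructs. The mixture, in 1 ml Hepes pH 7.8 buffer with KCl, NaCl, glycerol, DTT, BSA and glutathione Sepharose beads, was held 30 min at 4°C and then washed four times for 2 min at 4°C. Bound RNA was read out by microarray hybridisation, and enrichment of each heptamer motif was scored as a one-sided Z-score over the probes carrying it.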

Sequence | RNAcompete 7-mer binding Z-score
AAUCAAA | -0.398
GGCCGAG | 0.45
UGACUAU | -0.468
CGCCUUG | -0.624
CAUGUAA | -0.289
GGGCCUC | -0.176
GCUCCCA | -0.61
UGUAUUA | -0.162
GUGUGCA | 0.366
CAUAAUA | -0.653
GAUACCU | -0.774
ACUUAUA | -0.672
CCGGAUA | 0.119
UCGCAUC | -0.577
GAUGAGC | 0.873
UGGAAAG | 2.78
CACACAC | -0.468
GGGUACA | 3.39
CAGUCUU | -0.857
UUUUGUC | -0.704
AACAUAG | 0.345
UACAACG | 0.195
AACGGCA | 0.661
GAGUGAA | 1.13
GUAUCCC | -0.566

Sequence | RNAcompete 7-mer binding Z-score
UUAGCCA | -0.617
AGCAGUG | 1
CGUGGUU | 0.698
GCCUAGU | -0.544
ACUCUUU | -0.887
UGUACUG | -0.34
UGGCUUG | 0.0641
UUUCUAC | -0.752
AAUACUU | -0.806
UCAUAUA | -0.468
ACAUCCA | -0.632
AUGCGAU | -0.0707
ACCGAAA | -0.57
GCAUCCG | -0.377
AUGCUUC | -0.894
GCCGGGU | 1.29
AACACAU | -0.202
CAGAAGU | 0.0495
ACAUACU | -0.621
GGCUGGA | 1.04
CGUCCUU | -0.861
GAUGUUC | -0.788
AAGUUAG | 0.465
GGCGCAG | 1.35
GUGCUUU | -0.566

Sequence | RNAcompete 7-mer binding Z-score
AAGGAAC | 2.66
GCACAUC | -0.515
AGUCUUA | -0.584
UUACGCA | -0.592
AGGUGGC | 1.62
CGCGGCU | -0.366
AUUCCAU | -0.519
UGAGCUU | -0.584
UGAGCGG | 2.06
UAUAUGA | -0.453
GUUAACC | -0.286
UUUCAAU | -0.515
CCACGCC | -0.679
GGCAGCG | 1.49
CCGUCAC | -0.657
CGCCCGC | -0.785
GAGCCUG | -0.719
UGCAUCU | -0.766
GUUCAAC | -0.38
GCCGAUA | -0.417
GUCCCCG | -0.307
ACGUUAA | -0.369
UACCGCG | -0.22
UAUACCU | -0.792
GCCCGGA | -0.337

Sequence | RNAcompete 7-mer binding Z-score
CGCUAAG | -0.457
GGUGCUA | 0.88
GUUUACG | -0.169
AUAUGAU | -0.205
GAAUAGU | 0.217
CCAACCA | -0.668
ACGCUGC | -0.464
GGUGGUG | 3.25
CUGCUCU | -0.923
UCCUAUA | -0.668
CCAUUGC | -0.704
UGUCGCA | -0.679
ACUGGAG | 1.21
CUACGAG | -0.475
UUUCGGU | -0.253
GUUCUCA | -0.522
CUCAUCA | -0.715
UAUUAAU | -0.635
AGGAACG | 1.46
UAGAUUA | -0.333
GUUUGUC | -0.344
UCGAUUA | -0.573
GACUGUU | -0.843
CCCCGAG | -0.224
CACGGUG | 0.508

Sequence | RNAcompete 7-mer binding Z-score
GUUGAGC | 0.676
UUGGUAG | 1.46
GUCAUCC | -0.592
CGGCCCC | -0.635
CGCAUGG | 0.399
GAUCGAG | 0.65
GAUUUGA | -0.00877
CAUAACA | -0.311
AAACGCG | 0.0786
GGUAGGU | 2.96
ACUUGAU | -0.781
CCGGAUC | -0.391
GUCGUGU | 0.119
CAUUGAU | -0.5
CGUCCAU | -0.606
AACAAGA | 0.341
ACCACUA | -0.708
AGGCAAC | 0.13
CAGCUAC | -0.573
CCCUGGU | -0.646
UGAGCUA | 0.075
UAAUCAG | 0.0641
CGAGAGG | 1.46
GUAUACU | -0.468
GCUUGGU | -0.253

Sequence | RNAcompete 7-mer binding Z-score
UCUAGCC | -0.857
GUACAAU | 0.0896
UAGAACG | 0.312
CGCAUGC | -0.475
AACGGAG | 2.34
CAAGAGG | 1.27
GUGAGUC | 0.636
CCAUACC | -0.533
CUUUGAC | -0.912
AUGAUUC | -0.606
ACACAGU | -0.238
AAAACAA | 0.243
UGAAACA | -0.271
UAGCUGA | -0.224
CCGGCAA | -0.526
AUAAACC | -0.409
AUGCCCA | -0.828
GGCUAUA | 0.0167
GGGGACU | 1.3
CGUGCCA | -0.475
UCCACCA | -0.737
GUCCUUG | -0.584
CUACAAG | -0.413
AGACCAU | -0.952
AACAGGC | 1.62

Sequence | RNAcompete 7-mer binding Z-score
GCGGGAC | 1.8
CAGCCUU | -0.781
AUACCCU | -0.799
CGUCGCC | -0.741
AAUCAGU | 0.221
CGUUGCA | -0.643
AUAGAGU | 0.468
AAUUUGG | 0.687
AUAGGAU | 1.55
AGUUUUC | -0.526
ACCGGAA | 0.17
UUCCGCU | -0.708
ACCUGCA | -0.799
GAACCAU | -0.5
UCUACCG | -0.715
UGUACCA | -0.446
UGGACAA | 1.2
GACACUU | -0.908
AUGGAUA | 2.5
GUCAAAG | 0.41
GGGGGAA | 2.61
CUGACUC | -0.701
AUGUUCU | -0.77
UUUUCAA | -0.581
ACGGCGG | 1.11

Sequence | RNAcompete 7-mer binding Z-score
CACUGUC | -0.788
ACUGCCC | -0.439
CACGCGA | -0.486
GCAACUU | -0.486
GGUCUCG | 0.0677
UGGAUAA | 1.07
GCGGGGA | 3.23
ACAAGCG | 0.366
GCACGUC | -0.326
CCAUUUG | -0.963
CCGGGCA | 0.0349
AUGACCA | -0.337
UGGUUCG | 0.326
AUUGAGA | 0.283
AAUCACA | -0.453
CACAGUG | 0.21
UAGCUGU | -0.726
GUGUUUG | 0.221
UGCUCCU | -0.923
CUGAGAU | -0.42
AACUUGG | 0.0422
CGCCUCA | -0.748
GCAACUA | -0.296
ACGUUUC | -0.912
CGCGUCA | -0.304

Sequence | RNAcompete 7-mer binding Z-score
CUUACAG | -0.595
UUACAGG | 0.574
AGCCAAG | 0.0386
UCUUGAC | -0.908
UGAACCC | -0.592
AUUCUGU | -0.737
UUACAUG | -0.337
UACAAGG | 1.26
GCAAUCU | -0.643
CACGGAC | 0.0932
UCGUGCU | -0.577
AGGGGGU | 3.03
GUGAUCC | -0.278
UAGUUGC | -0.344
CUGAUGC | -0.639
CCCUGAG | -0.602
AGCUGGG | 2.13
GUAAAAA | 0.253
GUACAUG | 0.742
AACAUGU | -0.267
AGCUAUG | -0.205
CUAACUG | -0.61
ACCUAUG | -0.81
CGAAGCC | -0.449
GCAGCUU | -0.595

Sequence | RNAcompete 7-mer binding Z-score
CCUAUCA | -0.883
GAGGCUU | -0.42
GGCAAUG | 1.76
CGAACUU | -0.752
CAGCUUG | -0.621
CGGUGAG | 1.64
AGCUAGC | -0.592
GAAUCAG | 0.811
GCCCUCG | -0.774
ACUAAUC | -0.69
UUCACCG | -0.701
CGAAGCU | -0.606
UCCAUCG | -0.628
UACCCUC | -0.763
GCAGUGG | 2.37
GGUACUG | 0.894
GACAACA | -0.0998
UUUGAUA | -0.726
AUAUUUA | -0.61
UCACCCC | -0.555
GCCGCAC | -0.661
GUAGGUC | 1.22
GCAAACC | -0.442
CGAGAUA | -0.114
GAAUCGU | -0.337

Sequence | RNAcompete 7-mer binding Z-score
AUCGCGA | -0.286
AGUCGUU | -0.0161
GGACUGU | 0.239
ACGUUAG | -0.22
UGUGCCA | -0.511
AUCCUCA | -0.774
CUACACU | -0.617
GUGUUUU | -0.0197
CCUGCCA | -0.978
UCCUUAU | -0.85
GACUGUG | -0.198
UGCAAAA | -0.198
UGAAUCA | -0.0925
CCCCUUA | -0.715
AGUAAGU | 0.188
ACCGUGG | 0.694
UCCCCGU | -0.577
AGAAUGG | 3.51
UAAAGCA | -0.0197
AAACUUU | -0.752
UCAAGGG | 1.24
UGAGUCA | -0.0306
AUGGAUU | 1.32
CCUUCUA | -0.879
GCUGGUG | 0.767

Sequence | RNAcompete 7-mer binding Z-score
UACAUUG | -0.38
UACUUAA | -0.606
AUAAAAA | -0.384
GUUCGUC | -0.0415
AAUGACU | -0.395
UUGCAGA | -0.0306
UAUGUAC | -0.238
AAACCGC | -0.628
CCCCCGG | -0.231
CGCGAAU | -0.57
UUUUGCA | -0.632
GUUGCUC | -0.661
GCUGAAG | 0.457
CAGCCUA | -0.814
CCCUUCG | -0.792
GUGCGGG | 2.74
UCGAGGU | 1.02
UUAACCC | -0.825
GCGAUAC | -0.129
AGAUUUG | 0.312
UCAAUUU | -0.948
CCUGAAC | -0.806
UCAACUG | -0.511
UCCGCAG | -0.508
UGCGGGG | 2.87

Sequence | RNAcompete 7-mer binding Z-score
UGAAAGA | 0.355
GUUCGGA | 0.115
CUUGAAG | -0.457
AUUUACG | -0.551
CUCUUAU | -0.908
CCAUAGG | 0.0641
CCCAUGG | 0.0932
UAGCCCC | -0.544
UAGCAUA | -0.5
AACUAGG | 0.479
AGGCGUA | 0.716
CGUGACA | -0.246
UUGCCUU | -0.956
AAGCGGA | 2.01
AAAUAAA | -0.479
GAGUUGU | 0.0568
ACACUGU | -0.519
GUUGCGG | 1.04
GCUGUUA | -0.766
CCGCGCG | -0.304
UAACCCA | -0.337
UAGCGGC | 0.239
UUAACCA | -0.424
CAUCGAA | -0.588
ACAUUUG | -0.668

Sequence | RNAcompete 7-mer binding Z-score
GGAAUCA | 1.04
UCCUCAU | -0.785
UCAUGGG | 1.19
CUGUAAG | -0.377
GGACCUU | -0.541
CAGAUUU | -0.788
ACGUCGA | -0.191
CGAGAUU | -0.318
UGGAUCC | 0.111
AUAGUAA | 0.0532
CUAGGCC | -0.69
GCCCGCC | -0.599
CAGUUCC | -0.723
AUUGCGU | -0.296
GGGCAAG | 2.34
AAUCGAG | 0.184
CCCUAGU | -0.726
GCGGCGA | 1.41
CACAGAU | -0.311
UGGUUGG | 2.15
ACGGGUU | 2.32
GAGAAGG | 4.54
UGCUUCG | -0.624
CACACCG | -0.384
UUGACAC | -0.409

Sequence | RNAcompete 7-mer binding Z-score
AGUGCUC | -0.508
UGGUUAA | 1.53
UCGACUU | -0.803
CUUAACU | -0.832
UUAUGCA | -0.413
AGAGAAU | 0.345
CAGACAU | -0.377
GAUAGUA | 0.261
CGAAUGC | -0.511
CUCUCAU | -0.785
GCACUUU | -0.821
AUUACCU | -0.741
CUCCCGG | -0.267
CAGGAAC | 0.905
UUUCCCU | -0.894
GAACCGU | -0.588
GUUCUUU | -0.679
